# Reference: PubChem BioAssay AID1508623 (National Center for Advancing Translational Sciences (NCATS), 2021)
# Among all 48,000 compounds or so, about 450 (0.94%) were called active. Inconclusive results, whose numbers are uncertain, are shown with a selection of clear calls. Calls follow the shape of the dose curve; as a rule, active = well fitted inhibition curve with a large enough effect; inconclusive = small, poorly fitted or top-dose-only effect; inactive = no such curve, though single readings can be large or run the other way. Potencies of inconclusive entries are doubtful fits and often do not repeat.
# Assay: Primary qHTS for Identification of Small Molecule Inhibitors of Huntingtin Promoter Activity; also: nearly all actives have a fitted effect of over 50% in size
# Settings: HEK293 HTT promoter firefly luciferase reporter (activity 0% = vehicle and -100% = no light), 24 h; activity change, negative = inhibition: at 57.5 µM (top of the series)
# Method in brief: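 HEK293 luciferase promoter-reporter cells (2,500/well) plated 24 h, then compounds added at up to 57.5 uM final for 24 h at 37 °C. Firefly luminescence by Dual-Glo, normalized to vehicle (0%) and zero RLU (-100%).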
# Potency is read from the fitted curve at half-maximal effect; tags tell the direction and shape of the fitted curve.
SMILES,Potency,"activity change, negative = inhibition"
COc1cccc(-c2nc(SCC(=O)NC3CCCC3)c(-c3ccc(C)cc3)[nH]2)c1,"inconclusive: 39.8 µM [inhibitor, single point]",
CC1=C(c2ccc(C(C)C)cc2)S(=O)(=O)N=C1N1CCC(C(=O)NCCc2ccco2)CC1,"inconclusive: 28.2 µM [inhibitor, single point]",
CCN(CC)C(=O)CSc1nc(-c2ccc(C)cc2)nc2c1Cc1c(CO)cnc(C)c1O2,,inactive: -34.7%
Cc1ccc(C(=O)Nc2c(C)nc3ccccn3c2=O)cc1C,,inactive: 51.9%
COCCNc1nc(NCc2cccc(Cl)c2)c2cnn(C)c2n1,"inconclusive: 11.2 µM [inhibitor, partial curve]",
CCCCCCCCCCCCCCCC[n+]1ccccc1,"inconclusive: 10 µM [inhibitor, partial curve]",
COc1ccc(/C=C/C(=O)Nc2ccc3nc(N4CCC(C)CC4)cc(C)c3c2)cc1,"inconclusive: 8.91 µM [inhibitor, full curve]",
CCN(c1ccccc1)S(=O)(=O)c1c(-c2ccc(C)cc2)csc1C(=O)OC,"inconclusive: 31.6 µM [inhibitor, partial curve, poor fit]",
COc1ccccc1CNC(=O)C(C)n1c(=O)cc(-c2ccccc2)c2c(C)nn(C)c21 (configuration not stated),"inconclusive: 35.5 µM [inhibitor, partial curve, poor fit]",
O=C1CCSC2(C(=O)N(Cc3ccc(F)cc3)c3ccccc32)N1c1ccc(Cl)cc1 (configuration not stated),"inconclusive: 35.5 µM [inhibitor, single point]",
COc1ccc(C)cc1NS(=O)(=O)c1c(C(=O)N2CCC(C)CC2)c(C)n(C)c1C,,inactive: -9.43%
CCOc1c(Br)cc(C2CC(=O)Nc3cc4c(cc32)OCO4)cc1OC (configuration not stated),"inconclusive: 12.6 µM [inhibitor, partial curve]",
CC(=O)N1CCc2cc(Br)cc(S(=O)(=O)N3CCC(C(=O)Nc4ccc(C(C)C)cc4)CC3)c21,"inconclusive: 2.51 µM [inhibitor, single point]",
COc1ccc(C(=O)CC2(O)C(=O)N(Cc3cccc(C(F)(F)F)c3)c3ccccc32)cc1 (configuration not stated),"inconclusive: 28.2 µM [inhibitor, single point]",
CCCCc1ccc(NC(=O)c2ccc3c(c2)CCN3S(=O)(=O)CC)cc1,active: 22.4 µM,
CN(Cc1ccccc1)S(=O)(=O)c1ccc(NC(=O)c2cc(=O)c3ccccc3o2)cc1,"inconclusive: 28.2 µM [inhibitor, single point]",
Cc1cccc(N2CCN(S(=O)(=O)c3cc(C(=O)Nc4ccc(Oc5ccccc5)cc4)ccc3F)CC2)c1C,"inconclusive: 1.58 µM [inhibitor, full curve, poor fit]",
